# According to publication PMC10668032:
# The other results are listed elsewhere or left out. At the low end of the ranking the order means little.
# Biological target: SIX1-Q177R homeodomain (UniProt Q15475)
# Experiment: universal protein binding microarray
# Conditions: Universal all-10-mer PBM (8x60K, AMADID 030236), 300 nM GST-tagged protein, Alexa Fluor 488 anti-GST; buffer, salt, pH and temperature not stated; high values mean tight binding; most listed sequences are background and not binding sites; double strand, one strand shown
row,Sequence,binding signal
1,CGCAAGGC,-0.11 E-score
2,CGTTTCCA,-0.21 E-score
3,GTATACCA,0.152 E-score
4,ATTTCTGA,-0.0825 E-score
5,GTGGAGAA,-0.18 E-score
6,AAACACCT,0.419 E-score
7,CAGTGCTA,0.129 E-score
8,AGCGTCCA,-0.103 E-score
9,AAGCCGTA,-0.165 E-score
10,CTTTTTCA,-0.149 E-score
11,CTACTATC,0.0918 E-score
12,TCCTTCGA,-0.151 E-score
13,CACATTGG,-0.0582 E-score
14,AGGCGAAT,-0.207 E-score
15,CGATAGGA,0.0251 E-score
16,ATAGGAGC,-0.129 E-score
17,GATGAGTA,-0.0112 E-score
18,AGTTGAAG,-0.0278 E-score
19,ACAGTTCG,-0.046 E-score
20,AATTACAC,0.433 E-score
21,ACGACGGG,0.0939 E-score
22,CTAATTAC,-0.172 E-score
23,GTTGCAAC,0.102 E-score
24,CGCGCTCA,-0.125 E-score
25,ACAGTCAG,-0.0451 E-score

row,Sequence,binding signal
1,AACGCAAT,-0.139 E-score
2,AGAGATTG,-0.232 E-score
3,CGGTGTGA,0.434 E-score
4,AGAAGGAT,0.000365 E-score
5,CAAATCTC,-0.359 E-score
6,ATATTCCC,-0.152 E-score
7,ATTTATTC,-0.237 E-score
8,CCTGCTCA,0.0706 E-score
9,GTTTTGCA,-0.0348 E-score
10,GTCGCCAC,-0.127 E-score
11,CGGCCGAC,-0.09 E-score
12,ACCGGACC,0.0277 E-score
13,TCGACAGA,-0.21 E-score
14,ATTAAGGG,-0.045 E-score
15,ACCGGGAG,0.00208 E-score
16,GCTTACAA,-0.0776 E-score
17,AGATATCT,-0.0671 E-score
18,GGAACTTA,-0.137 E-score
19,CACATAAC,0.138 E-score
20,ACTTTTCT,-0.0979 E-score
21,GAGCCAGC,-0.00754 E-score
22,CACATGTC,-0.148 E-score
23,AGAACACG,0.356 E-score
24,CTTCTTTC,-0.0776 E-score
25,TACAATAA,-0.167 E-score

row,Sequence,binding signal
1,ACAATTTG,-0.119 E-score
2,GAGTGTAC,0.419 E-score
3,ATTAGGTG,0.296 E-score
4,GGGTCTTA,0.102 E-score
5,AAATTAAT,-0.168 E-score
6,ACACACAG,0.269 E-score
7,TGACAACA,0.0303 E-score
8,GGAAAAAA,-0.0639 E-score
9,AACAAAAA,-0.178 E-score
10,CATAGAGG,0.064 E-score
11,AACCGACG,-0.024 E-score
12,GATAATAA,-0.0888 E-score
13,CACTGTCG,0.0527 E-score
14,CACAATAA,-0.104 E-score
15,CAGGTTAG,-0.0344 E-score
16,CCACCCCG,0.246 E-score
17,ACGACCGT,0.0408 E-score
18,CGCTGCTA,-0.037 E-score
19,AGCATCTG,-0.152 E-score
20,ATGAGTAG,-0.128 E-score
21,CGGTTACG,0.0204 E-score
22,ACACTAAT,0.333 E-score
23,ATTGTCCC,-0.0722 E-score
24,CATATGCC,-0.0832 E-score
25,AGAGGATG,-0.173 E-score

row,Sequence,binding signal
1,CGACCGAC,-0.033 E-score
2,GTGTTGGA,0.414 E-score
3,CCAGCTTC,-0.218 E-score
4,CATGCGAG,-0.0083 E-score
5,GTACGATA,0.0992 E-score
6,ATTAGTTA,-0.191 E-score
7,GCAGCCAA,-0.136 E-score
8,AATGCCTA,-0.0522 E-score
9,CATTGCAC,0.15 E-score
10,GTGCATAA,0.0897 E-score
11,AATATTGC,-0.0771 E-score
12,GCCCCGAC,0.0584 E-score
13,AATTGAAG,-0.00216 E-score
14,ACAGCCCA,-0.305 E-score
15,ATCAGTCA,-0.129 E-score
16,AAAGAGTT,-0.00821 E-score
17,CCTAGTAC,0.0682 E-score
18,CGCTGCAA,-0.188 E-score
19,CTACGGGC,0.0516 E-score
20,CTTTGAAA,-0.179 E-score
21,TAAAGGAA,-0.0795 E-score
22,CAGTGCAG,0.0257 E-score
23,AACCATTG,-0.208 E-score
24,AGGTAGCG,-0.0073 E-score
25,GGGGTGCA,0.273 E-score

row,Sequence,binding signal
1,AAACCAAG,-0.0489 E-score
2,CAGACCCC,0.215 E-score
3,CCTAACGC,-0.0174 E-score
4,CGGCCGCA,-0.139 E-score
5,GAAAATGA,0.000835 E-score
6,CAAAAAGA,-0.183 E-score
7,ACCGGCGC,-0.0622 E-score
8,CTACCTGC,-0.00962 E-score
9,GCTCGAGA,-0.152 E-score
10,AACACCGG,0.483 E-score
11,CATAACCC,0.107 E-score
12,ATCACCTA,0.0265 E-score
13,AACCTTAT,-0.221 E-score
14,AACGGGAA,-0.278 E-score
15,GATACCGA,0.214 E-score
16,AAAGAGGC,-0.215 E-score
17,AAGATTCA,-0.125 E-score
18,ATCGTAGC,-0.0478 E-score
19,ATAGATGC,-0.28 E-score
20,CTTAACCC,0.143 E-score
21,CCAGGGTA,0.243 E-score
22,CGTTGTGA,-0.11 E-score
23,CTGCGAAC,-0.215 E-score
24,CCTGAGCG,-0.00173 E-score
25,ATAGTACG,0.0466 E-score

row,Sequence,binding signal
1,CTAGCCAC,-0.113 E-score
2,AGTGATGG,0.0177 E-score
3,TCTTGCCA,-0.0706 E-score
4,TTCACCAA,-0.294 E-score
5,CTGGTCTA,-0.136 E-score
6,CCATCTAA,-0.0433 E-score
7,ATCTGTAC,0.0105 E-score
8,CTATCCGA,0.0246 E-score
9,CACAAACC,-0.00515 E-score
10,TCATCTCA,-0.0657 E-score
11,CATAAGGG,0.0507 E-score
12,ACGGGCCT,-0.0595 E-score
13,GGTCAGAA,-0.069 E-score
14,AGCATAGA,-0.0833 E-score
15,AATAGATC,-0.157 E-score
16,CCATGTCG,0.0404 E-score
17,CGCCTAGC,0.0945 E-score
18,AATTATGA,-0.0814 E-score
19,AATCCCCC,0.0107 E-score
20,ATCGTTTA,-0.209 E-score
21,ACGTCAGG,-0.0395 E-score
22,ACCGCCTA,0.119 E-score
23,AGGTGGTA,0.13 E-score
24,TGCATGCA,0.0224 E-score
25,AGTGCATC,-0.193 E-score

row,Sequence,binding signal
1,ATACACCG,0.472 E-score
2,CGGGTTAG,0.127 E-score
3,AAGTAAGC,-0.0488 E-score
4,AACGCAGA,-0.116 E-score
5,CGAACTCC,0.132 E-score
6,AGAGCCGG,-0.158 E-score
7,GGGTGATA,0.218 E-score
8,TGCAGAAA,-0.135 E-score
9,ATCACTGC,0.0942 E-score
10,AGTATCCG,0.167 E-score
11,CACTAACG,0.2 E-score
12,CTTAAGCA,-0.13 E-score
13,AGAGCTGA,-0.198 E-score
14,CGAATCAG,-0.198 E-score
15,TACCTCTA,-0.0328 E-score
16,ATTGTTAA,-0.14 E-score
17,AGAAGTCC,-0.317 E-score
18,CCTCCGCC,0.0752 E-score
19,CAGCCTGC,-0.015 E-score
20,ACGGGCAC,0.0609 E-score
21,CGCTCTCA,-0.178 E-score
22,AACTATTC,-0.144 E-score
